Laboratory results from patent US20200079850A1 (SUTRO BIOPHARMA, published 2020).

Experiments:
[1] = molecular target: T1, recombinant human LAG3 protein (rhLAG3), HIS-tagged (ACRO) or biotinylated (R&D Cat #2319-C3) (human, UniProt P18627 23-450, biotinylated in part of the assays); assay: flow cytometry competition, biotinylated rhLAG3 binding to Daudi cells; competitor MHCII
T1 sequence: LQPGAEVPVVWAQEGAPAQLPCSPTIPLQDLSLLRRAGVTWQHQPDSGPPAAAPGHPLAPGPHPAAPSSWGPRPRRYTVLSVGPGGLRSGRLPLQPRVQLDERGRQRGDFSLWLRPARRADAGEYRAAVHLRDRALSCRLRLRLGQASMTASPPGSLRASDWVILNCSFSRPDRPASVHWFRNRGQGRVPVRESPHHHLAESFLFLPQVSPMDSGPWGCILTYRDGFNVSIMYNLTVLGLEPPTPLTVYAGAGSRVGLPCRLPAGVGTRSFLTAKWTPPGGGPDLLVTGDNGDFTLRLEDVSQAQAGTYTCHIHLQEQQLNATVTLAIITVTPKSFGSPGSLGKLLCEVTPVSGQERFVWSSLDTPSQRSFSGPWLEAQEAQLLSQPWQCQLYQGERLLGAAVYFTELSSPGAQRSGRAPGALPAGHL
Experimental: Daudi cells expressing Major Histocompatibility Class II (MHCII) molecules, the natural ligand for LAG3, were used to measure the ability of anti-PD1/LAG3 bi-specific antibody constructs to block biotinylated (ThermoFisher, Cat #21329) recombinant human LAG3 protein (rhLAG3, R&D Cat #2319-C3) binding. Cells were seeded at 100,000 cells/well in 100 μL of FACS buffer in 96-well polypropylene plates. The cells were centrifuged and resuspended with test antibodies (2× concentration) diluted in FACS buffer, immediately followed by equal volume of biotinylated rhLAG3 (added at 2× concentration; 7.5 μg/mL final). Cells were incubated on ice for 1 hour and washed twice. Biotinylated rhLAG3 binding was detected with 2 μg/mL R-Phycoerythrin-conjugated Streptavidin (eBioscience) for 30 minutes. Cells were washed twice with FACS buffer, fixed in 4% paraformaldehyde in PBS for 20 mins on ice in the dark, washed twice with FACS buffer, and analyzed using the BD LSR II Flow Cytometer. Data were analyzed using FlowJo (FlowJo, LLC; Ashland, Oreg.) to determine mean fluorescence intensities. Prism 6 software was used to create one site, specific binding with Hill slope curves (Log transform) to determine IC₅₀ values.

[2] = molecular target: T2, hLAG3 (Acro Biosystems), SPR analyte (human, UniProt P18627 23-450); assay: SPR (Biacore), antibody captured by anti-Fc, hLAG3 as analyte, 25 C
T2 construct: also called human LAG3 kinetics
T2 sequence: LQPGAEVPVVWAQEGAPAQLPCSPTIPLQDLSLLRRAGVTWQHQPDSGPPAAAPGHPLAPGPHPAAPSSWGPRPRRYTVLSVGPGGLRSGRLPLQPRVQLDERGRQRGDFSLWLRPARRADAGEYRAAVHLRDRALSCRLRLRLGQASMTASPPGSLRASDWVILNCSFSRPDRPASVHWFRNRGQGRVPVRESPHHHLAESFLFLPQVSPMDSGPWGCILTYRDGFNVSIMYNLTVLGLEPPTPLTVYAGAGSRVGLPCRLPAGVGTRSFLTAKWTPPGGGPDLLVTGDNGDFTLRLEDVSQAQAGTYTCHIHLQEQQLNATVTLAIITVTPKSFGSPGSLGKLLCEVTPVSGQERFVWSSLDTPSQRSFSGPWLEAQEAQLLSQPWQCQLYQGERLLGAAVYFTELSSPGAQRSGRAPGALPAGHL
Experimental: Anti-Fc polyclonal antibodies were immobilized onto a CMS chip (GE Life Sciences) using amine coupling chemistry (from Amine Coupling Kit, GE Life Sciences). The immobilization steps were carried out at a flow rate of 25 μl/min in 1×HBS-EP+buffer (GE Life Sciences; 10× Stock diluted before use). The sensor surfaces were activated for 7 min with a mixture of NHS (0.05 M) and EDC (0.2 M). The Anti-Fc antibodies were injected over all 4 flow cells at a concentration of 25 ug/ml in 10 mM sodium acetate, pH 4.5, for 7 min. Ethanolamine (1 M, pH 8.5) was injected for 7 min to block any remaining activated groups. An average of 12,000 response units (RU) of capture antibody was immobilized on each flow cell.
Kinetic binding experiments were performed at 25° C. using 1×HBS-EP+buffer. Test and control antibodies were injected over the anti-Fc surface at concentrations of 5-10 μg/mL for 12 seconds at a flow rate of 10 μl/min on flow cells 2, 3 and 4, followed by a buffer wash for 30 seconds at the same flow rate. Kinetic characterization of antibody samples was carried out with a dilution series of antigen and 1 injection of 0 nM antigen. After capturing ligand (antibody) on the anti-Fc surface, the analyte (hPD1 or hLAG3, Acro Biosystems, Newark, Del.) was bound at 100, 25, 6.25 and 0 nM for 180 seconds, followed by a 450 second dissociation phase at a flow rate of 50 μl/min. Between each ligand capture and analyte binding cycle, regeneration was carried out using 2 injections of 10 mM Glycine pH 2.0 for 30 seconds at 30 μL/min, followed by a 30 second buffer wash step.
The data was fit with the Biacore T200 Evaluation software, using a 1:1 Langmuir binding model. KD (affinity, nM) was determined as a ratio of the kinetic rate constants calculated from the fits of the association and dissociation phases.

[3] = molecular target: T3, rabbit Fc-tagged recombinant human PD1 (rhPD1-rabbit Fc) (human, UniProt Q15116 fragment, limits assumed); assay: flow cytometry competition, rhPD1-rabbit Fc binding to CHO-PD-L1 cells; competitor PD-L1
T3 construct: also called recombinant human PD-1 protein
T3 sequence (Q15116 25-167 limits assumed): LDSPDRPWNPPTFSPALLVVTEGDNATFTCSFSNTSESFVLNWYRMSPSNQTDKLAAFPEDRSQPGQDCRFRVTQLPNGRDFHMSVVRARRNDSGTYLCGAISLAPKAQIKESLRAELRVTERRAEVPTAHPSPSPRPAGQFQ
Experimental: CHO-k cells stably expressing human PD-L1 or PD-L2 were used to measure the ability of anti-PD1/LAG3 bi-specific antibody constructs to block rabbit Fc-tagged recombinant human PD1 (rhPD1-rabbit Fc) protein binding. Cells were seeded at 100,000 cells/well in 100 μL of FACS buffer in 96-well polypropylene plates. The cells were centrifuged and resuspended with test antibodies (2× concentration) diluted in FACS buffer, immediately followed by equal volume of rhPD1-rabbit Fc (added at 2× concentration; 0.2 ng/mL and 0.1 ng/mL final for PD-L1 and PD-L2, respectively). Cells were incubated on ice for 1 hour and washed twice. rhPD1-rabbit Fc binding on CHO-human PD-L1 or PD-L2 cells was detected with R-Phycoerythrin AffiniPure F(ab′)₂ Fragment Goat Anti-Rabbit IgG (H+L) (1:200 dilution, Jackson ImmunoResearch) for 30 minutes. The cells were washed twice with FACS buffer, fixed in 4% paraformaldehyde in PBS for 20 mins on ice in the dark, washed twice with FACS buffer, and analyzed using the BD LSR II Flow Cytometer. Data were analyzed using FlowJo (FlowJo, LLC; Ashland, Oreg.) to determine mean fluorescence intensities. Prism 6 software was used to create one site, specific binding with Hill slope curves (Log transform) to determine IC₅₀ values.

IC50 [1]: 17 nM
Kd [2]: 0.0845 nM
koff [2]: 0.000102 s⁻¹
kon [2]: 1.21e+06 M⁻¹ s⁻¹
IC50 [3]: 118 nM
B1: PD-1/LAG3 Bi-specific Construct A: aPD1 1353-G10 scFv_zwB × aLAG3 Fab_zwA (bispecific antibody, human IgG1, kappa)
scFv: MEVQLVQSGAEVKKPGASVKVSCKASGYRFPHYGISWVRQAPGQGLEWMGWISAYNGNTNYAQKLQGRVTMTTDTSTNTAYMELRSLRSDDTAVYYCARDVDYGTGSGYWGQGTLVTVSSGGGGSGGGGSGGGGSSYELTQPPSVSVSPGQTARITCSGDALPKQYAYWYQQKPGQAPVMVIYKDTERPSGIPERFSGSSSGTKVTLTISGVQAEDEADYYCQSADNSITYRVFGGGTKVTVLAAGSDQ[no letters for human IgG1 Fc with changes]
heavy: MQVQLVESGGGVVQPGRSLRLSCAASGFTFSSYGMHWVRQAPGKGLEWVAVIWYDGSYKYYADSVKGRFTISRDNSKNTLYLQMNSLRAEDTAVYYCAREEAPENWDYALDVWGQGTTVTVSSASTKGPSVFPLAPSSKSTSGGTAALGCLVKDYFPEPVTVSWNSGALTSGVHTFPAVLQSSGLYSLSSVVTVPSSSLGTQTYICNVNHKPSNTKVDKKVEPKSCDKTHTCPPCPAPELLGGPSVFLFPPKPKDTLMISRTPEVTCVVVDVSHEDPEVKFNWYVDGVEVHNAKTKPREEQYNSTYRVVSVLTVLHQDWLNGKEYKCKVSNKALPAPIEKTISKAKGQPREPQVYVYPPSREEMTKNQVSLTCLVKGFYPSDIAVEWESNGQPENNYKTTPPVLDSDGSFALVSKLTVDKSRWQQGNVFSCSVMHEALHNHYTQKSLSLSPGK
light: [no letters for about 100 residues][no letters for about 120 residues]
notes: also called 1449-G09.2-Fab-zwA
